Consider 29 compounds from patent publication US11000038B2, “Pyridone compounds and agricultural and horticultural fungicides containing the same as active ingredients” (priority 2017, dated 2021).

Assay [1] has as its system rice blast fungi (Magnaporthe grisea). The assay is classed as in vivo. The note with it: rice blast.
Assay [2] concerns tomato late blight fungi (Phytophthora infestans). The assay is classed as in vivo. The note with it: tomato late blight.
The subject of assay [3] is cucumber anthracnose fungi (Colletotrichum orbiculare). Description: Test Example H: cucumber anthracnose, spray treatment of cucumber plants. The following applies: cucumber anthracnose, 6 to 10 days after inoculation.
[4] abbreviates: spray treatment of tomato plants.

Read-outs that look alike come from different tables or passages of the source.

In the case of `COc1cccc(-n2cc(Br)c(=O)c(Br)c2-c2c(F)cc(F)cc2F)c1C` [Compound 367], in assay [1] (spray treatment of rice plants), the “Test A control value” is recorded as “H (H shows the control value of more than 50%)”. Also, the “Test F control value” in assay [2] (setting [4]) is “H (H shows the control value of more than 50%)”. Besides, in assay [3] (250 ppm spray (2.5 ml/pot)), the “Test H control value” is “H (H shows the control value of more than 50%)”.
As for `Cc1cccc(F)c1-n1cc(Cl)c(=O)c(Br)c1-c1ccc(F)cc1` [Compound 368], the “Test A control value” in assay [1] (spray treatment of rice plants) was “H (H shows the control value of more than 50%)”. The “Test F control value” in assay [2] (setting [4]) is on record as “L (L shows the control value of 50% or less)”. Also, the “Test H control value” in assay [3] (250 ppm spray (2.5 ml/pot)) is “H (H shows the control value of more than 50%)”.
Take `Cc1cccc(F)c1-n1cc(Cl)c(=O)c(Cl)c1-c1ccc(F)cc1` [Compound 369]: the “Test A control value” in assay [1] (spray treatment of rice plants) is “L (L shows the control value of 50% or less)”. Moreover, the “Test F control value” in assay [2] (setting [4]) was “L (L shows the control value of 50% or less)”. For the same compound, in assay [3] (250 ppm spray (2.5 ml/pot)), the “Test H control value” is reported as “H (H shows the control value of more than 50%)”.
For the compound `Cc1cn(-c2ccccc2C(F)(F)F)c(-c2c(F)cccc2F)c(C)c1=O` [Compound 370], the “Test A control value” in assay [1] (spray treatment of rice plants) is recorded as “L (L shows the control value of 50% or less)”. Further, the “Test F control value” in assay [2] (setting [4]) is given as “L (L shows the control value of 50% or less)”. Moreover, in assay [3] (250 ppm spray (2.5 ml/pot)), the “Test H control value” is reported as “H (H shows the control value of more than 50%)”.
`O=c1c(Br)cn(-c2ccccc2C(F)(F)F)c(-c2c(F)cccc2F)c1Cl` [Compound 371]: the “Test A control value” in assay [1] (spray treatment of rice plants) is listed as “H (H shows the control value of more than 50%)”. The “Test F control value” in assay [2] (setting [4]) is “L (L shows the control value of 50% or less)”. In addition, the “Test H control value” in assay [3] (250 ppm spray (2.5 ml/pot)) is given as “H (H shows the control value of more than 50%)”.
Consider `O=c1c(Br)cn(-c2ccccc2C(F)(F)F)c(-c2c(F)cccc2F)c1Br` [Compound 372], for which, in assay [1] (spray treatment of rice plants), the “Test A control value” is “H (H shows the control value of more than 50%)”. Moreover, the “Test F control value” in assay [2] (setting [4]) is listed as “L (L shows the control value of 50% or less)”. Also, the “Test H control value” in assay [3] (250 ppm spray (2.5 ml/pot)) is given as “H (H shows the control value of more than 50%)”.
Take `Cc1ccc(N(C)C)cc1-n1cc(Br)c(=O)c(Cl)c1-c1c(F)cc(F)cc1F` [Compound 373]: the “Test A control value” in assay [1] (spray treatment) is listed as “H (H shows the control value of more than 50%)”. Besides, the “Test F control value” in assay [2] (spray treatment) is “L (L shows the control value of 50% or less)”. The “Test H control value” in assay [3] (250 ppm spray) is “H (H shows the control value of more than 50%)”.
In the case of `CNc1ccc(C)c(-n2cc(Br)c(=O)c(Cl)c2-c2c(F)cc(F)cc2F)c1` [Compound 374], the “Test A control value” in assay [1] (spray treatment) is listed as “H (H shows the control value of more than 50%)”. For the same compound, the “Test F control value” in assay [2] (spray treatment) is “L (L shows the control value of 50% or less)”. Besides, the “Test H control value” in assay [3] (250 ppm spray) is “H (H shows the control value of more than 50%)”.
Turning to `CCc1c(-c2c(F)cc(F)cc2F)n(-c2ccccc2C)cc(Cl)c1=O` [Compound 375], the “Test A control value” in assay [1] (spray treatment) was “H (H shows the control value of more than 50%)”. Also, the “Test F control value” in assay [2] (spray treatment) is “L (L shows the control value of 50% or less)”. Further, the “Test H control value” in assay [3] (250 ppm spray) is listed as “H (H shows the control value of more than 50%)”.
As to `CCCc1c(-c2c(F)cc(F)cc2F)n(-c2ccccc2C)cc(Br)c1=O` [Compound 376], in assay [1] (spray treatment), the “Test A control value” is recorded as “L (L shows the control value of 50% or less)”. Also, the “Test F control value” in assay [2] (spray treatment) is reported as “L (L shows the control value of 50% or less)”. Moreover, the “Test H control value” in assay [3] (250 ppm spray) was “L (L shows the control value of 50% or less)”.
Regarding `Cc1ccccc1-n1cc(Br)c(=O)c(Cl)c1-c1ccccc1F` [Compound 377], in assay [1] (spray treatment), the “Test A control value” is “L (L shows the control value of 50% or less)”. Moreover, the “Test F control value” in assay [2] (spray treatment) is “L (L shows the control value of 50% or less)”. Moreover, the “Test H control value” in assay [3] (250 ppm spray) is given as “H (H shows the control value of more than 50%)”.
On to `Cc1ccccc1-n1cc(Br)c(=O)c(Cl)c1-c1ccccc1` [Compound 378], for which the “Test A control value” in assay [1] (spray treatment) is listed as “L (L shows the control value of 50% or less)”. Also, in assay [2] (spray treatment), the “Test F control value” is recorded as “L (L shows the control value of 50% or less)”. Also, in assay [3] (250 ppm spray), the “Test H control value” is listed as “H (H shows the control value of more than 50%)”.
For `Cc1cccc(Cl)c1-n1cc(Br)c(=O)c(Cl)c1-c1ccc(F)cc1` [Compound 379], in assay [1] (spray treatment), the “Test A control value” is given as “H (H shows the control value of more than 50%)”. Moreover, the “Test F control value” in assay [2] (spray treatment) is given as “L (L shows the control value of 50% or less)”. Besides, the “Test H control value” in assay [3] (250 ppm spray) was “L (L shows the control value of 50% or less)”.
With `Cc1cccc(Cl)c1-n1cc(Br)c(=O)c(Br)c1-c1ccc(F)cc1` [Compound 380], the “Test A control value” in assay [1] (spray treatment) is on record as “H (H shows the control value of more than 50%)”. The “Test F control value” in assay [2] (spray treatment) is listed as “L (L shows the control value of 50% or less)”. Moreover, in assay [3] (250 ppm spray), the “Test H control value” is on record as “L (L shows the control value of 50% or less)”.
`Cc1cccc(Cl)c1-n1cc(Cl)c(=O)c(Br)c1-c1ccc(F)cc1` [Compound 381]: the “Test A control value” in assay [1] (spray treatment) is given as “H (H shows the control value of more than 50%)”. Further, in assay [2] (spray treatment), the “Test F control value” is listed as “L (L shows the control value of 50% or less)”. Moreover, in assay [3] (250 ppm spray), the “Test H control value” was “L (L shows the control value of 50% or less)”.
With `Cc1cccc(Cl)c1-n1cc(Cl)c(=O)c(Cl)c1-c1ccc(F)cc1` [Compound 382], in assay [1] (spray treatment), the “Test A control value” is “H (H shows the control value of more than 50%)”. Further, the “Test F control value” in assay [2] (spray treatment) is recorded as “L (L shows the control value of 50% or less)”. Moreover, in assay [3] (250 ppm spray), the “Test H control value” was “H (H shows the control value of more than 50%)”.
Regarding `COc1ccc(C)c(-n2cc(C)c(=O)c(C)c2-c2c(F)cccc2F)c1` [Compound 383], the “Test A control value” in assay [1] (spray treatment) is “H (H shows the control value of more than 50%)”. The “Test F control value” in assay [2] (spray treatment) is listed as “L (L shows the control value of 50% or less)”. For the same compound, in assay [3] (250 ppm spray), the “Test H control value” is on record as “H (H shows the control value of more than 50%)”.
Regarding `COc1cc(-n2cc(Br)c(=O)c(Br)c2-c2c(F)cccc2F)c(C)cc1Br` [Compound 384], the “Test A control value” in assay [1] (spray treatment) was “H (H shows the control value of more than 50%)”. In addition, the “Test F control value” in assay [2] (spray treatment) is given as “L (L shows the control value of 50% or less)”. Further, the “Test H control value” in assay [3] (250 ppm spray) was “H (H shows the control value of more than 50%)”.
Regarding `COc1ccc(C)c(-n2cc(Br)c(=O)c(Br)c2-c2c(F)cccc2F)c1` [Compound 385], the “Test A control value” in assay [1] (spray treatment) is reported as “H (H shows the control value of more than 50%)”. The “Test F control value” in assay [2] (spray treatment) was “L (L shows the control value of 50% or less)”. Further, the “Test H control value” in assay [3] (250 ppm spray) is reported as “H (H shows the control value of more than 50%)”.
Consider `Cc1c(-c2ccccc2)n(-c2ccc(Br)cc2Cl)cc(Br)c1=O` [Compound 386], for which the “Test A control value” in assay [1] (spray treatment) was “H (H shows the control value of more than 50%)”. Moreover, the “Test F control value” in assay [2] (spray treatment) is “L (L shows the control value of 50% or less)”. Moreover, the “Test H control value” in assay [3] (250 ppm spray) is “H (H shows the control value of more than 50%)”.
As for `Cc1c(-c2ccccc2)n(-c2ccccc2Cl)cc(Br)c1=O` [Compound 387], in assay [1] (spray treatment), the “Test A control value” is given as “H (H shows the control value of more than 50%)”. Moreover, the “Test F control value” in assay [2] (spray treatment) is recorded as “L (L shows the control value of 50% or less)”. For the same compound, the “Test H control value” in assay [3] (250 ppm spray) is listed as “H (H shows the control value of more than 50%)”.
As for `O=c1c(Br)cn(-c2ccccc2Cl)c(-c2ccccc2)c1Cl` [Compound 388], the “Test A control value” in assay [1] (spray treatment) is “H (H shows the control value of more than 50%)”. The “Test F control value” in assay [2] (spray treatment) is on record as “L (L shows the control value of 50% or less)”. The “Test H control value” in assay [3] (250 ppm spray) is reported as “H (H shows the control value of more than 50%)”.
Regarding `Cc1ccc(F)cc1-n1cc(C)c(=O)c(C)c1-c1ccccc1` [Compound 389], the “Test A control value” in assay [1] (spray treatment) was “L (L shows the control value of 50% or less)”. Further, the “Test F control value” in assay [2] (spray treatment) is “L (L shows the control value of 50% or less)”. Besides, the “Test H control value” in assay [3] (250 ppm spray) is listed as “H (H shows the control value of more than 50%)”.
For the compound `Cc1ccc(C)c(-n2cc(C)c(=O)c(C)c2-c2c(F)cc(F)cc2F)c1` [Compound 390], the “Test A control value” in assay [1] (spray treatment) is listed as “H (H shows the control value of more than 50%)”. Besides, in assay [2] (spray treatment), the “Test F control value” is listed as “L (L shows the control value of 50% or less)”. In addition, the “Test H control value” in assay [3] (250 ppm spray) is on record as “H (H shows the control value of more than 50%)”.
For `COc1cc(-n2cc(Br)c(=O)c(Cl)c2-c2c(F)cccc2F)c(C)cc1Br` [Compound 391], the “Test A control value” in assay [1] (spray treatment) is reported as “H (H shows the control value of more than 50%)”. Further, in assay [2] (spray treatment), the “Test F control value” was “L (L shows the control value of 50% or less)”. Also, the “Test H control value” in assay [3] (250 ppm spray) is reported as “H (H shows the control value of more than 50%)”.
`COc1ccc(C)c(-n2cc(Br)c(=O)c(Cl)c2-c2c(F)cccc2F)c1` [Compound 392]: the “Test A control value” in assay [1] (spray treatment) was “H (H shows the control value of more than 50%)”. Further, the “Test F control value” in assay [2] (spray treatment) is on record as “L (L shows the control value of 50% or less)”. In addition, the “Test H control value” in assay [3] (250 ppm spray) is reported as “H (H shows the control value of more than 50%)”.
In the case of `CC(C)c1ccccc1-n1cc(Br)c(=O)c(Cl)c1-c1c(F)cc(F)cc1F` [Compound 393], in assay [1] (spray treatment), the “Test A control value” is listed as “H (H shows the control value of more than 50%)”. The “Test F control value” in assay [2] (spray treatment) is “L (L shows the control value of 50% or less)”. For the same compound, in assay [3] (250 ppm spray), the “Test H control value” is “H (H shows the control value of more than 50%)”.
For `CC(C)c1ccccc1-n1cc(Br)c(=O)c(Br)c1-c1c(F)cc(F)cc1F` [Compound 394], the “Test A control value” in assay [1] (spray treatment) is on record as “H (H shows the control value of more than 50%)”. Besides, the “Test F control value” in assay [2] (spray treatment) is “L (L shows the control value of 50% or less)”. The “Test H control value” in assay [3] (250 ppm spray) is on record as “H (H shows the control value of more than 50%)”.
`CC(C)c1ccccc1-n1cc(Cl)c(=O)c(Cl)c1-c1c(F)cc(F)cc1F` [Compound 395]: the “Test A control value” in assay [1] (spray treatment) is “H (H shows the control value of more than 50%)”. The “Test F control value” in assay [2] (spray treatment) is recorded as “L (L shows the control value of 50% or less)”. Also, in assay [3] (250 ppm spray), the “Test H control value” was “H (H shows the control value of more than 50%)”.
